{"source": "PubChem BioAssay AID686971", "about": "(National Center for Advancing Translational Sciences (NCATS), 2013)", "note": "In all, about 360,000 compounds went through this assay and about 7,500 (2.1%) were called active. The inconclusive results got no clear call from the source; some entries with a clear call stand among them for comparison. Calls follow the shape of the dose curve; as a rule, active = well fitted cell-killing curve with a large enough effect; inconclusive = small, poorly fitted or top-dose-only effect, or effect the other way, or another doubt; inactive = no such curve, though single readings can be large or run the other way. Potencies of inconclusive entries are left out as doubtful fits. Potency is read from the fitted curve at half-maximal effect; tags tell the direction and shape of the fitted curve.", "data": [{"assay": "qHTS for induction of synthetic lethality in tumor cells producing 2HG: qHTS for the HT-1080-IDH1KD cell line;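 as to activity, negative = toxicity: 0% = DMSO wells and -100% = cell-free medium wells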", "settings": "HT-1080 IDH1 knockdown viability, ATP luminescence, 48 h; activity, negative = toxicity: at 46.1 µM (top of the series) unless noted", "in_short": "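After a 2 h attachment period, IDH1KD HT-1080 cells took pin-transferred compound for 48 h at 37 °C; ATP-based luminescence after 10 min room-temperature reagent incubation reported viability.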", "values": [{"smiles": "O=C(Nc1cccc(S(=O)(=O)Nc2ccc(Cl)cc2)c1)c1cc2c(s1)CCCC2", "Potency": "active: 20.6 µM"}, {"smiles": "Cc1ccnc(Sc2ccc([N+](=O)[O-])cn2)n1", "Potency": "inconclusive [rising, single point]"}, {"smiles": "COc1cccc(NC(=O)CSc2nc3ccccc3c(=O)n2CCCC(=O)NCCCN2CCOCC2)c1", "Potency": "inconclusive [cytotoxic, single point]"}, {"smiles": "COC(=O)N/N=C/c1ccc([N+](=O)[O-])s1", "Potency": "inconclusive [cytotoxic, single point]"}, {"smiles": "COc1cc(/C=C2\\SC(=S)N(CCC(=O)Nc3cccc(O)c3)C2=O)cc(OC)c1OC", "Potency": "inconclusive [cytotoxic, single point]"}, {"smiles": "OC(c1ccc(-c2ccccc2)cc1)c1ncc(-c2ccc(C(F)(F)F)cc2)[nH]1", "note": "(stereo not given)", "Potency": "inconclusive [cytotoxic, single point]"}, {"smiles": "COc1ccc(C2c3ccc(O)cc3Oc3ncn(Cc4ccccc4)c(=N)c32)cc1OC", "note": "(stereo not given)", "Potency": "inconclusive [cytotoxic, partial curve]"}, {"smiles": "COc1ccc(/C=C2\\SC(=S)N(CCC(=O)N(CCO)Cc3ccccc3)C2=O)cc1OC", "Potency": "inconclusive [cytotoxic, single point]"}, {"smiles": "COc1cc(/C=C2/CCC/C(=C\\c3cc(O)c(OC)c(Cl)c3)C2=O)cc(Cl)c1O", "Potency": "active: 20.6 µM"}, {"smiles": "COc1cc(/C=N/Nc2snc(SC)c2C#N)ccc1O", "Potency": "active: 3.16 µM"}, {"smiles": "O=c1[nH]c(NCCCO)nc2c1C1(CCCC1)Cc1ccccc1-2", "Potency": "inconclusive [cytotoxic, single point]"}, {"smiles": "Oc1c(CN2CCN(c3ccc(F)cc3)CC2)cc(Cl)c2cccnc12", "Potency": "inconclusive [cytotoxic, partial curve]"}, {"smiles": "COCCCN1C(=O)c2[nH]nc(-c3ccccc3O)c2C1c1ccc(Cl)cc1", "note": "(stereo not given)", "Potency": "inconclusive [cytotoxic, single point]"}, {"smiles": "FC(F)(F)C(F)(F)c1nc2nc(Cl)c(Cl)nc2[nH]1", "Potency": "inconclusive [cytotoxic, single point]"}, {"smiles": "O=C(Nc1ccc(NC(=O)c2sc3ccccc3c2Cl)cc1Cl)c1ccco1", "Potency": "inconclusive [cytotoxic, single point]"}, {"smiles": "CSc1ccc(CN(C)C(=O)COc2ccc(C(=O)c3ccccc3)cc2)cc1", "Potency": "active: 11.6 µM"}, {"smiles": "COc1ccc(S(=O)(=O)Nc2ccc(S(=O)(=O)Nc3ccc(F)cc3)cc2)cc1C", "Potency": "inconclusive [cytotoxic, single point]"}, {"smiles": "CNS(=O)(=O)c1cccc(C(=O)OCC(=O)Nc2ccc(OC)cc2[N+](=O)[O-])c1", "Potency": "inactive"}, {"smiles": "CC(C)[C@H](NC(=O)c1ccccc1F)C(=O)Nc1cccc(S(=O)(=O)N2CCOCC2)c1", "Potency": "inactive"}, {"smiles": "CCOCCCNC(=S)NCCCNc1nc2c(C)c(C)ccc2cc1C#N", "Potency": "inconclusive [cytotoxic, single point]"}, {"smiles": "Cc1noc(C)c1S(=O)(=O)Nc1ccc2c(c1)C(=O)N([C@@H](C)CO)C[C@@H](C)[C@@H](CN(C)CC1CCCCC1)OCCCC[C@@H](C)O2", "Potency": "inactive"}, {"smiles": "Cc1ccc(C)c(N2CCN(S(=O)(=O)c3ccc4c(c3)NC(=O)CS4)CC2)c1", "Potency": "inconclusive [cytotoxic, single point]"}, {"smiles": "COc1ccc(Cl)cc1NC(=O)CN(C)CC(=O)Nc1ccc(Br)cc1", "Potency": "inconclusive [cytotoxic, partial curve, poor fit]"}, {"smiles": "C/C(=C/CCC(C)[C@H]1CC[C@@]2(C)C3=C(CC[C@]12C)[C@@]1(C)CCC(=O)C(C)(C)[C@@H]1CC3)C(=O)O", "note": "(stereo not given in full)", "Potency": "inactive"}, {"smiles": "CCOc1cc(/C=N/Nc2nncc(-c3ccccc3)n2)ccc1O", "Potency": "inactive"}, {"smiles": "COC(=O)c1cc2sccc2n1Cc1nc(-c2ccc(OC)cc2)oc1C", "Potency": "inconclusive [cytotoxic, single point]"}, {"smiles": "COc1cc2c(C(=O)NCCN(C)C)cn(CC(C)C)c(=O)c2cc1OC", "Potency": "inconclusive [rising, single point]"}, {"smiles": "CC(C)C(c1nnnn1Cc1cccs1)N1CCN(c2ccccc2)CC1", "note": "(stereo not given)", "Potency": "inactive"}, {"smiles": "CC(C)OP(=O)(Nc1cccc2ccccc12)OC(C)C", "Potency": "inactive"}, {"smiles": "CC(Oc1ccc(/C=N/NC(=O)Cc2cccc3ccccc23)cc1)C(=O)O", "note": "(stereo not given)", "Potency": "inactive"}, {"smiles": "O=c1[nH]c2ccccc2nc1-c1cccs1", "Potency": "inconclusive [cytotoxic, single point]"}, {"smiles": "CCCCCCN1CCN(C2CN(Cc3cn(Cc4ccc(C)cc4)nn3)S(=O)(=O)C2)CC1", "note": "(stereo not given)", "Potency": "active: 23.1 µM"}, {"smiles": "Cc1ccc(C(C(=O)NC2CCCC2)N(Cc2ccc3c(c2)OCO3)C(=O)Cc2cccs2)cc1", "note": "(stereo not given)", "Potency": "inconclusive [cytotoxic, single point]"}, {"smiles": "CCCSc1nsc(NC(=O)C(c2ccccc2)c2ccccc2)n1", "Potency": "inconclusive [cytotoxic, single point]"}, {"smiles": "O=C(CSc1nc2nc(-c3cccs3)cc(C(F)(F)F)c2c(=O)[nH]1)C(F)(F)F", "Potency": "inconclusive [cytotoxic, single point]"}, {"smiles": "CN(Cc1cn(Cc2ccc(C(F)(F)F)cc2)nn1)C1CN(Cc2cn(Cc3ccc(C(F)(F)F)cc3)nn2)S(=O)(=O)C1", "note": "(stereo not given)", "Potency": "inconclusive [cytotoxic, partial curve]"}, {"smiles": "Cc1cc(C(=O)CN2C(=O)C(=O)N(Cc3ccccc3)C2=O)c(C)n1Cc1ccc(F)cc1", "Potency": "inconclusive [cytotoxic, full curve]"}, {"smiles": "c1ccc(Nc2nc3ccccc3o2)cc1", "Potency": "inactive"}, {"smiles": "COc1cccc(-c2nc(N3CCC(C)CC3)c3ccccc3n2)c1O", "Potency": "inconclusive [cytotoxic, single point]"}, {"smiles": "Cc1ccc(Cc2cnc(NC(=O)c3cccs3)s2)cc1", "Potency": "inconclusive [cytotoxic, single point]"}, {"smiles": "O=C1c2ccccc2NC(c2ccc(Br)s2)N1O", "note": "(stereo not given)", "Potency": "inconclusive [cytotoxic, single point]"}, {"smiles": "CCCCN(C(=O)c1ccc(S(=O)(=O)N(C)C)cc1)c1nc2ccccc2s1", "Potency": "inactive"}, {"smiles": "CC(C)N(Cc1nccn1C)C(=O)c1ccc2oc(Cc3ccccc3)nc2c1", "Potency": "inactive"}, {"smiles": "CC(C)(CC(=O)N1CCN(c2ccc(Cl)cc2)CC1)CC1=NS(=O)(=O)c2ccccc2N1", "Potency": "inactive"}, {"smiles": "COc1ccc([C@H]2CC(=O)C=C(c3cccc(C(C)C)c3)C2)cc1OC", "Potency": "inactive"}, {"smiles": "C=CCn1c(C)cc(-c2csc(NCC)n2)c1C", "Potency": "inconclusive [cytotoxic, single point]"}, {"smiles": "N#Cc1ccc(/C=N/NC(=O)c2cc(-c3cccs3)nc3ccccc23)cc1", "Potency": "active: 10.3 µM"}, {"smiles": "Cc1cccc2c(N=O)c(O)n(CCc3ccccc3)c12", "Potency": "inactive"}, {"smiles": "N#Cc1nc(COc2ccccc2Cl)oc1NCc1ccco1", "Potency": "inactive"}, {"smiles": "CCN(CC)S(=O)(=O)c1ccc(N2CCN(c3cccc(OC)c3)CC2)c([N+](=O)[O-])c1", "Potency": "inconclusive [cytotoxic, single point]"}, {"smiles": "Cc1ccc(-c2nn3nnnc3c3ccccc23)cc1", "Potency": "inconclusive [cytotoxic, single point]"}, {"smiles": "N#Cc1ccc(-c2nc3ccc(Br)cn3c2Cc2cccc(F)c2)cc1", "Potency": "inconclusive [cytotoxic, single point]"}, {"smiles": "O=C(CC1Nc2ccccc2NC1=O)Nc1ccc2c(c1)OCO2", "note": "(stereo not given)", "Potency": "inconclusive [cytotoxic, single point]"}, {"smiles": "Cc1cccc2cc(C#N)c(NCCNS(=O)(=O)c3ccc4c(c3)OCCO4)nc12", "Potency": "inactive"}, {"smiles": "CC(CCc1ccc(O)cc1)NCc1ccc(Cl)cc1Cl", "note": "(stereo not given)", "Potency": "inconclusive [cytotoxic, partial curve]"}, {"smiles": "Cc1ccc(-c2csc3ncnc(-n4cnc5ccccc54)c23)cc1", "Potency": "active: 20.6 µM"}, {"smiles": "COC(=O)C[C@H]1C=C[C@H](NC(=O)c2ccc(F)cc2)[C@@H](CO)O1", "Potency": "inactive"}, {"smiles": "NC1CCN(c2nc3c(cc2F)c(=O)c(C(=O)O)cn3-c2ccc(F)cc2F)C1", "note": "(stereo not given)", "Potency": "inactive"}, {"smiles": "O=C1NC[C@H](Cc2ccccc2)N(C[C@@H]2CCCN2C[C@H](Cc2ccc(O)cc2)N2C[C@H](Cc3ccccc3)N(CCc3ccccc3)C(=O)C2=O)C1=O", "Potency": "inconclusive [cytotoxic, single point]"}, {"smiles": "Cc1ccc(CNc2ccc3c(c2)OCO3)cc1", "Potency": "inconclusive [cytotoxic, single point]"}, {"smiles": "O=c1[nH]c(=O)n(-c2ccc(F)cc2)c2c1C(C(F)(F)F)(C(F)(F)F)N=C(c1ccc(F)cc1)N2", "Potency": "active: 18.4 µM"}, {"smiles": "CCN(CC)S(=O)(=O)c1ccc(C)c(NC(=O)COc2ccc(Cl)cc2Br)c1", "Potency": "inconclusive [cytotoxic, partial curve]"}, {"smiles": "COc1cccc(/C=C/C(=O)OCC(=O)N2c3ccccc3CC2C)c1OC", "note": "(stereo not given)", "Potency": "inactive"}, {"smiles": "COc1ccc(NC(=O)CCCOc2ccc(Cl)c(C)c2)cc1S(=O)(=O)N1CCOCC1", "activity, negative = toxicity": "inconclusive: -27% [cytotoxic]"}, {"smiles": "CC(C)OC(=O)N(C)C[C@@H]1OCc2cn(nn2)CCCC(=O)N([C@@H](C)CO)C[C@H]1C", "Potency": "inactive"}, {"smiles": "COc1ccc(C(=O)NNC(=O)Cc2nc3nc(C)cc(C)n3n2)cc1", "Potency": "inactive"}, {"smiles": "Cc1ccc(-c2csc3ncnc(N4CCN(C(=O)c5ccco5)CC4)c23)cc1", "Potency": "inconclusive [cytotoxic, single point]"}, {"smiles": "CCC1CCCCN1C(=O)COc1ccc2c(c1)OCO2", "note": "(stereo not given)", "Potency": "inactive"}, {"smiles": "COC(=O)c1ccccc1NC(=O)c1noc2c1CCCC2", "Potency": "inconclusive [cytotoxic, single point]"}, {"smiles": "CC(=O)Nc1ccc(-c2ccnc3c2CC(C(=O)NCc2ccccc2)O3)cc1", "note": "(stereo not given)", "Potency": "inconclusive [cytotoxic, full curve]"}]}]}
